{
  "source": "ChEMBL document CHEMBL4888484",
  "about": "“Replenishing the malaria drug discovery pipeline: Screening and hit evaluation of the MMV Hit Generation Library 1 (HGL1) against asexual blood stage Plasmodium falciparum ,using a nano luciferase reporter read-out” (2022)",
  "note": "Among all 150,000 compounds or so, about 540 (0.36%) showed an effect of 50% or more. Some of the results follow.",
  "data": [
    {"system": "Plasmodium falciparum", "assay": "Primary screen in NF54 nanoGlo assay, in single point, at 2uM, 72h; a lower Z score goes with more inhibition", "type": "functional, Erythrocyte", "conditions": "timepoint 72 hour", "units": {"% Inhibition": "%"}, "values": [
      {"smiles": "Cc1cccc(C[C@@H](CNC(=O)c2ccncc2)C(=O)O)c1", "% Inhibition": 1, "Z score": -0.06},
      {"smiles": "CC(C)CC(=O)Nc1nc(C(=O)NCc2ccncc2)cs1", "% Inhibition": -1, "Z score": 0.18},
      {"smiles": "CN1C(=O)c2ccc(NC(=O)C3CCC3)cc2C1=O", "% Inhibition": 7, "Z score": -1.01},
      {"smiles": "Cc1n[nH]c(C2CN(C(C)C(=O)Nc3ncc(C)s3)CCO2)n1", "note": "(stereo not drawn)", "% Inhibition": -1, "Z score": 0.18},
      {"smiles": "COc1ccc(C)cc1NC(=O)CC1CCN(S(=O)(=O)c2ccc3c(c2)CCN3C(C)=O)CC1", "% Inhibition": -4, "Z score": 0.38},
      {"smiles": "C[C@H]1CN(CC(=O)N(CCC#N)Cc2ccco2)CCO1", "% Inhibition": -4, "Z score": 0.55},
      {"smiles": "Cc1cc(C)cc(NC(=O)CCc2ccc(S(=O)(=O)N3CCCC3)cc2)c1", "% Inhibition": -1, "Z score": 0.26},
      {"smiles": "Cc1noc2ncnc(NC[C@](C)(O)c3cccc(F)c3)c12", "% Inhibition": -7, "Z score": 1.41},
      {"smiles": "COc1ccc(OC)c(NC(=O)c2cc(C)nc3onc(-c4ccc(F)cc4)c23)c1", "% Inhibition": 3, "Z score": -0.39},
      {"smiles": "CC(C)(C)N1CC[C@H]1C(=O)N[C@H]1CC[C@@H](CO)CC1", "% Inhibition": 15, "Z score": -1.99},
      {"smiles": "Brc1cccc(-c2ccc(-c3cc(-c4ccccc4)nnc3-c3ccccc3)o2)c1", "% Inhibition": 41, "Z score": -6.11},
      {"smiles": "COc1ccc(-c2ccc(N(C)C)nc2)c(OC)c1OC", "% Inhibition": -15, "Z score": 2.54},
      {"smiles": "CCN(CC)S(=O)(=O)c1cc(C)c(C)c(NCc2ccon2)c1", "% Inhibition": 23, "Z score": -2.48},
      {"smiles": "O=C(Nc1ccc(-c2cc[nH]n2)cc1)c1ccc[nH]c1=O", "% Inhibition": -11, "Z score": 1.41},
      {"smiles": "COCC1(C(=O)N2CC[C@@H]3OCc4cccc(c4)Oc4cc(ccc4OC)CCC(=O)N[C@@H]3C2)CCC1", "% Inhibition": -15, "Z score": 1.68},
      {"smiles": "O=C(CN1c2ccccc2S(=O)(=O)c2ccccc21)NC1CCCCCC1", "% Inhibition": -14, "Z score": 1.51},
      {"smiles": "COc1cc(NC(=O)C(=O)c2ccc(C)cc2)c(C(=O)N2CCCCC2)cc1OC", "% Inhibition": -6, "Z score": 1.07},
      {"smiles": "Cc1nnc(CN(C)C(=O)c2cncc(Cl)c2)o1", "% Inhibition": -2, "Z score": 0.28},
      {"smiles": "CCCN(CCc1ccccn1)c1nccn(C)c1=O", "% Inhibition": 9, "Z score": -1.69},
      {"smiles": "O=C(c1nccc2ccccc12)N1CC[C@H](c2c(F)cccc2F)C1", "% Inhibition": -1, "Z score": 0.11},
      {"smiles": "COc1cccnc1-c1cccc(-c2ccn(CC(=O)Nc3cnccn3)n2)c1", "% Inhibition": -11, "Z score": 1},
      {"smiles": "O=C(Cc1ccc(Oc2nccc(C(F)(F)F)n2)cc1)NCCO", "% Inhibition": 33, "Z score": -0.75},
      {"smiles": "Cc1nc(CN2CCO[C@H](c3cc(F)c(Cl)cc3Cl)C2)no1", "% Inhibition": -17, "Z score": 2.62},
      {"smiles": "O=C(NCCCn1ccnc1)c1c[nH]c(=O)n(Cc2ccc3c(c2)OCO3)c1=O", "% Inhibition": -9, "Z score": 1.54},
      {"smiles": "C[C@@H](O)CNS(=O)(=O)c1c(Cl)cccc1C(F)(F)F", "% Inhibition": 1, "Z score": -0.17},
      {"smiles": "O=C(CN[C@H](CO)c1ccccc1)NC1CCCC1", "% Inhibition": -4, "Z score": 0.62},
      {"smiles": "COCc1nc(C(=O)N2CCCc3cc(-c4ccccc4)ccc32)co1", "% Inhibition": -8, "Z score": 1.08},
      {"smiles": "Cc1cc2n(CCNC(=O)N3CCN(S(C)(=O)=O)C3=O)ccn2n1", "% Inhibition": -2, "Z score": 0.36},
      {"smiles": "CCc1cc(CC)c(NC(=O)N2CCOC[C@@H](CO)C2)c(CC)c1", "% Inhibition": -4, "Z score": 0.87},
      {"smiles": "CCCc1c(NC(=O)c2cc(C)no2)cnn1-c1cccc(C)c1", "% Inhibition": -7, "Z score": 0.85},
      {"smiles": "C/C=C/CC(=O)N1CCN(CCOC)[C@@H]2CS(=O)(=O)C[C@@H]21", "% Inhibition": -13, "Z score": 1.67},
      {"smiles": "CC(C)[C@H](Cn1nccn1)NC(=O)Cc1ccc(F)cc1", "% Inhibition": -15, "Z score": 2.29},
      {"smiles": "Cc1noc(C)c1C(=O)Cn1nnnc1C", "% Inhibition": 15, "Z score": -2.58},
      {"smiles": "CCS(=O)(=O)N1CCC[C@H](C(=O)N(C)Cc2ccns2)C1", "% Inhibition": 15, "Z score": -1.89},
      {"smiles": "O=C(O)[C@H]1CCCN(Cc2ccc(-n3ccnc3)cc2)C1", "% Inhibition": -12, "Z score": 1.56},
      {"smiles": "CN(C(=O)c1csc(-c2ccco2)n1)c1ccccc1", "% Inhibition": -3, "Z score": 0.5},
      {"smiles": "O=C(Nc1ncc(Cc2ccccc2)s1)c1cc(S(=O)(=O)N2CCCCC2)ccc1Cl", "% Inhibition": -12, "Z score": 1.64},
      {"smiles": "COc1cc(OC)cc(C(=O)N[C@@H](C)Cc2ccoc2)c1", "% Inhibition": -1, "Z score": 0.21},
      {"smiles": "Cc1ccccc1C(=O)N(Cc1cccc(F)c1)c1ccc(CC(=O)NCCN2CCCCC2)cc1", "% Inhibition": 58, "Z score": -4.25},
      {"smiles": "Cn1cc(C2CCN(C(=O)C3COc4ccccc4O3)C2)cn1", "note": "(stereo not drawn)", "% Inhibition": 4, "Z score": -0.63},
      {"smiles": "Cc1ccccc1-c1noc(-c2cccnc2N(C)Cc2ccccc2)n1", "% Inhibition": 2, "Z score": -0.35},
      {"smiles": "CCC(=O)N1CCN(C(=O)c2cccnc2O)C1", "% Inhibition": -7, "Z score": 1.32},
      {"smiles": "CO[C@@H](C(=O)N1CCN(C2CCCCC2)C(=O)C1)c1ccccc1", "% Inhibition": 5, "Z score": -0.98},
      {"smiles": "CCOC(=O)CN(CC1CC1)C(=O)CCn1cc(C)cn1", "% Inhibition": 4, "Z score": -0.51},
      {"smiles": "O=c1n(Cc2ccc(F)cc2F)nc([C@H]2CCCNC2)n1-c1ccccc1", "% Inhibition": 8, "Z score": -0.73},
      {"smiles": "CCCN1CCN(C(=O)c2nc(N3CCOCC3)c3c(C)scc3n2)CC1", "% Inhibition": -3, "Z score": 0.37},
      {"smiles": "COc1ccc(CN[C@H](C)c2onc(C)c2C(=O)O)cc1", "% Inhibition": -12, "Z score": 1.88},
      {"smiles": "Cc1cc(F)ccc1C(=O)NC(C)C(C)C(=O)O", "note": "(stereo not drawn)", "% Inhibition": -7, "Z score": 0.72},
      {"smiles": "Cc1cc([C@H](C(=O)O)N(Cc2nccn2C)C2CC2)ccc1F", "% Inhibition": -3, "Z score": 0.46},
      {"smiles": "Cc1cc(OC[C@@H](O)CNC(C)C)cc(C)c1Cl", "% Inhibition": -7, "Z score": 1.4},
      {"smiles": "CCOC(=O)c1sc2nc(-c3ccc(C)c(C)c3)c(NCc3cccc(F)c3)n2c1C", "% Inhibition": -7, "Z score": 0.75},
      {"smiles": "COc1ccc(-c2c(C)nn3c(=O)[nH]ncc23)c(OC)c1", "% Inhibition": -3, "Z score": 0.56},
      {"smiles": "CCCCNC(=O)Nc1cc(C)nn1CCO", "% Inhibition": -10, "Z score": 1.99},
      {"smiles": "Cc1ccc(S(=O)(=O)NCc2cccc(C#N)c2)cc1N(C)C", "% Inhibition": -5, "Z score": 0.7},
      {"smiles": "CCc1ccc(CNC(=O)c2c(O)c3cccnc3[nH]c2=O)cc1", "% Inhibition": -4, "Z score": 0.52},
      {"smiles": "CC[C@H](C)c1cc(C(=O)NCCn2cnnc2C)on1", "% Inhibition": -9, "Z score": 1.47},
      {"smiles": "COc1cccc(CN2CCC(c3ncc(C)n3[C@H](C)CO)CC2)n1", "% Inhibition": -1, "Z score": 0.1},
      {"smiles": "CCN1CCN(C(=O)c2cccc(Nc3c(Oc4ccc(OC)cc4)cnn(-c4cccc(Cl)c4)c3=O)c2)CC1", "% Inhibition": 6, "Z score": -0.75},
      {"smiles": "C[C@@H](C1CCC1)N(C)C(=O)C1=CCCCO1", "% Inhibition": -9, "Z score": 1.05},
      {"smiles": "Cn1ccnc1-c1csc(NC(=O)c2cccn2C2CC2)n1", "% Inhibition": -1, "Z score": 0.06},
      {"smiles": "O=C(NCc1cccs1)c1ccc(N2CCCc3ccccc32)s1", "% Inhibition": -7, "Z score": 0.88},
      {"smiles": "Cc1nnc(CC(=O)N2CCCc3cc(-c4ccccc4)ccc32)o1", "% Inhibition": -7, "Z score": 0.81},
      {"smiles": "Oc1cccc(-c2nccn2-c2cccc(-c3ccn[nH]3)c2)c1", "% Inhibition": -11, "Z score": 1.87},
      {"smiles": "O=C(Nc1ccc(N2CCc3sccc3C2)cc1)c1cnccn1", "% Inhibition": 28, "Z score": -3.53},
      {"smiles": "Fc1cc(CNC[C@H]2CN(Cc3ccccc3)CCCO2)ccc1OC(F)F", "% Inhibition": 13, "Z score": -2.47},
      {"smiles": "Cc1cc(C)c2nc(-c3cccc(Cl)c3)c(C)c(C(=O)Nc3ccc(Oc4ccc(-c5ccccc5)cc4)cc3)c2c1", "% Inhibition": 4, "Z score": -0.5},
      {"smiles": "C[C@H](NCCNC(=O)c1ccco1)c1ccc(Br)o1", "% Inhibition": -4, "Z score": 0.44},
      {"smiles": "O=C(Nc1ccccc1OCc1ccccc1)N1CCC2(CCO2)CC1", "% Inhibition": -19, "Z score": 2.43},
      {"smiles": "O=S(=O)(c1ccc(F)c(Cl)c1)N1CC[C@H](c2ccc3c(c2)CCO3)C1", "% Inhibition": -8, "Z score": 1.11},
      {"smiles": "Cc1c(Br)c(C(=O)N(C(C)C)C(C)C)nn1C", "% Inhibition": -2, "Z score": 0.27},
      {"smiles": "Cc1cc(S(=O)(=O)N[C@H]2CC(=O)N(C)C2)c(C)s1", "% Inhibition": 3, "Z score": -0.53},
      {"smiles": "Cc1oc(-c2[nH]ncc2C(=O)N2CCOCC2)cc1S(=O)(=O)Nc1cccc(F)c1", "% Inhibition": -5, "Z score": 0.63},
      {"smiles": "COc1cc(C(=O)NCc2cnc(N(C)C)n2C)ccc1Cl", "% Inhibition": -4, "Z score": 0.63},
      {"smiles": "O=C(Cc1c(F)c(F)c(F)c(F)c1F)Nc1ccc2c(c1)OCCCO2", "% Inhibition": -8, "Z score": 1.52},
      {"smiles": "CCOc1cccc(CC(=O)NCc2ccc3c(c2)CCN3C(=O)c2ccc(F)cc2)c1OCC", "% Inhibition": -12, "Z score": 1.11},
      {"smiles": "Cc1noc2ncc(C(=O)N3CCN(CCC(C)C)CC3)cc12", "% Inhibition": 2, "Z score": -0.37},
      {"smiles": "CC(C)CNC(=O)[C@@H]1Cc2[nH]cnc2C2(CCN(Cc3cccs3)CC2)N1", "% Inhibition": 2, "Z score": -0.44},
      {"smiles": "CN(CC1CC(F)(F)CN1C(=O)OC(C)(C)C)[C@@H]1COC[C@H]1O", "note": "(stereo partly drawn)", "% Inhibition": -5, "Z score": 0.64},
      {"smiles": "CC[C@](C)(NCc1ccco1)c1nnnn1-c1ccc(OC)c(OC)c1", "% Inhibition": -14, "Z score": 1.98},
      {"smiles": "Cn1cc(C(=O)O)c(-c2ccc(NS(=O)(=O)c3cccc(F)c3)cc2)n1", "% Inhibition": -1, "Z score": 0.21},
      {"smiles": "c1ccc2[nH]c(-c3nc(-c4ccc(-c5csc(C6CC6)n5)cc4)no3)cc2c1", "% Inhibition": -6, "Z score": 0.92},
      {"smiles": "Cc1ccc(Br)cc1NC(=O)CNS(=O)(=O)C1CC1", "% Inhibition": -18, "Z score": 1.59},
      {"smiles": "COc1ccc(N2C(=O)N(Cc3ccncc3)c3ccccc3S2(=O)=O)cc1OC", "% Inhibition": 20, "Z score": -2.34},
      {"smiles": "CCOc1cc(CNC(=O)c2ccccc2NC(=O)c2nsc3ccccc23)ccc1OC", "% Inhibition": -12, "Z score": 2.05}
    ]}
  ]
}
